PubChem BioAssay AID488969 (Vanderbilt High Throughput Screening Facility, 2010)
Whole data set: some 110,000 compounds, median “z-score” near -0.1, cut for the highest 2% near 2. Some of the results follow. The source made the active and inactive calls.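 Rule for the calls: active = z-score in the third read window above 3 or below -3; inactive = the rest.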

What follows are compounds tested against Metabotropic glutamate receptor 8 (Rattus norvegicus) (UniProt P70579) (assay: mGluR8 Gi/Go-coupled signaling modulation – cell-based, rat, thallium flux, HTS, primary screen (AID 488969)). Conditions: HEK293 rat mGluR8, GIRK (G protein-gated inwardly rectifying potassium channel) thallium flux, FluoZin2; at 10 µM; stronger effect = higher value; submaximal glutamate (EC20) added with thallium.
UniProt P70579, sequence (P70579 whole entry, looked up): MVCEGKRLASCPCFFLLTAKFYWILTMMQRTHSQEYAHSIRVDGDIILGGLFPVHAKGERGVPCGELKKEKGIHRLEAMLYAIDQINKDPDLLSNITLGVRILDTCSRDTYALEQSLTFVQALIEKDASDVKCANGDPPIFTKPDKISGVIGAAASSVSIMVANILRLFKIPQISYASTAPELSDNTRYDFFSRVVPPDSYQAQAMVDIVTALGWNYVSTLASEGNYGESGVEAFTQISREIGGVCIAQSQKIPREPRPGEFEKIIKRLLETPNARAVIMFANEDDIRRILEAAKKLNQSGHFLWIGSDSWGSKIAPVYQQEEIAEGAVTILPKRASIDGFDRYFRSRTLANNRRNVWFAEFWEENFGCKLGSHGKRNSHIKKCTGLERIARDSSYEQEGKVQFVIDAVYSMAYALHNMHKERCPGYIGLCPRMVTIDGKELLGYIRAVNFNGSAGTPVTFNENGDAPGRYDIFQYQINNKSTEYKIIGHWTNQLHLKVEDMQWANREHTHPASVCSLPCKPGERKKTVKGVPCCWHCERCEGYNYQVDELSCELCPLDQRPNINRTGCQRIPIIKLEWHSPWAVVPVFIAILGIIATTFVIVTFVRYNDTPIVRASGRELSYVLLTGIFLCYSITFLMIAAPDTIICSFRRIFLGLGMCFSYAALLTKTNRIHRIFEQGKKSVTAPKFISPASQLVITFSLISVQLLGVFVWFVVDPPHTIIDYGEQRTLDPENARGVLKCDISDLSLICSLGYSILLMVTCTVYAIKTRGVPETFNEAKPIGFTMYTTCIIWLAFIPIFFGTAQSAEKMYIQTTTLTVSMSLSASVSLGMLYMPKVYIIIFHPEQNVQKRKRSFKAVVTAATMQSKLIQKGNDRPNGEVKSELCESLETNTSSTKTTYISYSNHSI

Structure (SMILES)	z-score
CCN(CC(=O)Nc1cc(C)nn1-c1nc(C)cc(C)n1)Cc1ccccc1	0.172
Cc1ccc(N/C(CSC(N)=O)=N\S(=O)(=O)c2ccc(C)cc2)cc1	-0.0542
CCOC(=O)C1=C(C)NC2=C(C(=O)CC(c3ccc(OC)c(OC)c3)C2)C1c1ccc(C)o1 (centres undefined)	active: 4.89
CSc1cccc(NC(=O)CN(c2cccc(C)c2)S(C)(=O)=O)c1	0.00929
O=C(Nc1ccccc1)OCC1CCCN2CCCCC12 (centres undefined)	0.261
O=C(Nc1ccccc1-c1nnc(SCc2ccc(Cl)cc2Cl)o1)c1ccccc1	0.141
CC[n+]1c(/C=C(/C)SC)sc2ccccc21	-0.18
Cc1cccc(NC(=O)CN2C(=O)NC(C)(c3ccc4c(c3)OCO4)C2=O)c1 (centres undefined)	-0.436
CCOc1cc(/C=C2\CCC/C(=C\c3cc(Cl)c(O)c(OCC)c3)C2=O)cc(Cl)c1O	1.62
O=C(C[n+]1cc(-c2ccccc2)n2c1CCC2)Nc1nc(-c2ccccc2)cs1	-0.72
O=C(OCC(=O)N(Cc1ccccc1)C1CCS(=O)(=O)C1)c1cc2c(s1)CCCC2 (centres undefined)	-0.557
CCCS(=O)(=O)c1c(S(=O)(=O)CCC)c2c(C)cccn2c1C(=O)OC	-0.0581
Cc1cccc(-n2c(SCN3C(=O)c4ccccc4C3=O)nc3ccccc3c2=O)c1	0.48
CC1(C)CC1C(=O)Nc1ccc([N+](=O)[O-])cc1Br (centres undefined)	-0.538
CCCCN(CC(=O)Nc1c(C)cccc1CC)C(=O)SCC	-1.1
COc1cccc(OCC(O)CN2CCN(c3ncccn3)CC2)c1 (centres undefined)	-0.278
OCCN1CN=C(Nc2nc3ccccc3o2)NC1	0.00528
CCn1c(SCC(=O)c2[nH]c(C)c(C(C)=O)c2C)nnc1-c1cccs1	0.574
Cc1cc(C(=O)NCC(=O)OCC(=O)Nc2ccc(OC(F)F)cc2)ccc1[N+](=O)[O-]	-0.413
Cc1ccc(C)c2nc3sc(C(=O)N4CCCc5ccccc54)c(N)c3cc12	-0.134
Cc1ccc(-n2cnc(=O)c3cccnc32)cc1	-0.0637
Nc1nc(CSc2nnnn2-c2ccc(F)c(Cl)c2)nc(N2CCOCC2)n1	-0.379

Structure (SMILES)	z-score
CCCCN(C)C(=O)c1coc(=O)c2ccccc12	-0.19
O=C(Cc1coc2ccc3ccccc3c12)NCc1ccccc1	0.0512
CCCc1cc(=O)[nH]c(SCC(=O)NC(=O)OCC)n1	-0.0127
COC(=O)c1ccccc1NC(=O)CN1C(=O)C2CCCN2c2ncc(Cl)cc21 (centres undefined)	-0.322
CC1CCN(C(=O)c2cc(F)c(F)cc2Cl)CC1	0.568
Cc1n[nH]c(C)c1S(=O)(=O)N(CC(=O)Nc1ccc2c(c1)OCCO2)c1ccc(C(C)C)cc1	-0.193
Cc1cccc(Oc2nc(-c3ccccc3)cc(C)c2S(C)(=O)=O)c1C	0.102
COc1ccc(C(=O)c2c[nH]c(C(=O)NCc3ccco3)c2)cc1	-0.236
Cc1cc(Cl)ccc1OCC(=O)NC1CCCC1	0.0341
COCCCNc1c2c3c(cccc3[nH]c1=O)C(=O)c1ccccc1-2	-1.46
COc1cc2[nH]cc(C(=O)NCCc3ccccc3)c(=O)c2cc1OC	-1.47
Cc1ccc(S(=O)(=O)NCCC(=O)N2CCCCC2)cc1	0.0206
COC(=O)CSc1nc2ccc(C)cc2[nH]1	-0.156
COc1ccc(OCC(O)CN(C2CCCCC2)C2CCCCC2)cc1 (centres undefined)	0.744
O=C(NCCn1cccc1)c1cccc2ccccc12	0.0293
c1ccc(Cn2nnnc2C(c2cccs2)N2CCCCCC2)cc1 (centres undefined)	0.764
COc1ccc2c(c1OC)C(=O)N1N=C(c3ccc(Cl)cc3)CC21 (centres undefined)	-0.308
Cn1ncc([N+](=O)[O-])c1C(=O)N1CCOCC1	0.104
CC(C)CC(C(=O)Oc1ccc2c3c(c(=O)oc2c1)CCC3)N1C(=O)c2ccccc2C1=O (centres undefined)	-0.621
COc1cccc(C2C(C(=O)OC(C)C)=C(C)Nc3ncnn32)c1 (centres undefined)	0.0834
O=C(Nc1ccc2c(c1)OCO2)N1CCN(c2ccccc2Cl)CC1	-0.291
CC1CN(C(=O)c2ccc3c(c2)OCO3)CC(C)O1 (centres undefined)	-0.138

Structure (SMILES)	z-score
COc1ccc(-c2c(C)n([O-])c3c([n+]2=O)CCC3)cc1OC	0.576
Cc1ccc(S(=O)(=O)N(C)C)cc1-n1c(SCC(=O)Nc2ccc(F)cc2)nc2ccccc2c1=O	-0.357
O=C(Nc1ccccc1[N+](=O)[O-])c1nc[nH]c1C(=O)NCCO	0.119
CS/C(=N\S(=O)(=O)c1ccc(N)cc1)NS(=O)(=O)c1cccs1	-0.08
CC(=O)SCC(=O)N=c1sc2cc(F)ccc2n1C	-0.618
COC(=O)c1c(NC(=O)COC(=O)CCc2ccc(S(=O)(=O)N3CCOCC3)cc2)sc2c1CCC2	-0.328
COC(=O)c1cc(OC)c(OC)cc1NC(=O)c1ccoc1C	0.388
CC1CCN(C(=S)c2cn(Cc3ccccc3F)c3ccccc23)CC1	0.0857
COc1cccc(-n2c(SCC(=O)N3c4ccccc4CC3C)nnc2-c2ccco2)c1 (centres undefined)	-1.15
CCCCN(CCCNC(=O)C1CCN(S(=O)(=O)N2CCOCC2)CC1)Cc1ccccc1	2.95
CCn1ccc(C(=O)NC2=C(C#N)CCC2)n1	-0.208
CCn1cc(Br)c(-c2nc3ccccc3c(=O)n2N)n1	-0.322
Cn1c(=O)c2c(nc(NCc3cccnc3)n2Cc2cccc(C(F)(F)F)c2)n(C)c1=O	-0.804
CCN(CC)S(=O)(=O)c1ccc(N2CCCCC2)c(NC(=O)/C(C#N)=C/c2ccc(OC)cc2)c1	-0.0436
CN(C)S(=O)(=O)N(Cc1ccc(Br)cc1)c1ccccc1	-0.612
Cc1ccc(Cn2cc(S(=O)(=O)c3ccc(Cl)cc3)c(=O)c3cc(F)ccc32)cc1	-0.041
COc1cccc(NC(=O)COC(=O)CNS(=O)(=O)c2c(F)cccc2F)c1	-0.285
Cc1ccc(OCC(=O)Nc2ccccc2-c2ccccc2)cc1	-0.289
Cc1ccc(N2C(=O)C(NC(=O)c3ccccc3)(C(F)(F)F)C3=C2CC(C)(C)CC3=O)cc1 (centres undefined)	0.115
Cc1ccc(NC(=O)COC(=O)/C=C/c2cccs2)cc1	0.41
COc1cc(C2C(C(C)=O)=C(O)C(=O)N2c2ccc(C)cc2)ccc1O (centres undefined)	0.346
Cc1ccc2nc(N3CCN(C)CC3)c(C#N)cc2c1	-1.52

Structure (SMILES)	z-score
CC(C)CC(OC(=O)c1cccs1)C(=O)NCc1ccco1 (centres undefined)	-0.0958
Cc1ccc(S(=O)(=O)NNC(=O)C(=O)NNc2ccccn2)cc1	0.262
CC(c1ccccc1)N1CC(C(=O)N2CCN(c3ccccc3)CC2)CC1=O (centres undefined)	0.0304
COC(=O)[C@@H](NC(=O)NC1CCCc2ccccc21)C(C)C (some centres undefined)	0.54
C=CCn1c(Cc2csc(N)n2)nnc1SCC(=O)Nc1ccccc1C(F)(F)F	-0.19
Cc1nnc(N/N=C/c2cc([N+](=O)[O-])c(N3CCC(C)CC3)cc2N2CCC(C)CC2)n1N	2.68
CC1CCc2c(sc(NC(=O)Cn3nc(C(F)(F)F)c4c3CCCCC4)c2C#N)C1 (centres undefined)	-0.198
O=C(Nc1cccc(Cl)c1)Nc1nc(-c2ccc(Cl)cc2)cs1	-0.494
O=C(O)c1ccc(S(=O)(=O)c2ccccc2)cc1	0.0716
Cc1cc(C)c(NC(=O)CN(C2CCCCC2)C2CCCCC2)c(C)c1	-0.05
COC(=O)c1sc(N)c(C(=O)OC)c1COC(=O)[C@@H](NS(=O)(=O)c1cccc(Cl)c1)C(C)C	-0.0185
N#Cc1nc(-c2ccco2)oc1N1CCOCC1	0.925
CCOC(=O)c1cnn2cc(-c3[nH]ncc3[N+](=O)[O-])cnc12	-0.273
O=C(Oc1cc(-c2ccccc2)no1)c1cccc(C(F)(F)F)c1	-0.626
CC(C)OC(=O)c1ccc(NC(=O)c2ccco2)cc1	1.5
CC(CC(=O)NCC1CCCO1)c1ccccc1 (centres undefined)	-0.159
O=C(CS(=O)(=O)c1c[nH]c2ccccc12)N1CCCc2ccccc21	-0.0477
CC(=O)N1CCN(S(=O)(=O)c2ccc(C)cc2)C1C(C)C (centres undefined)	-0.000634
Cc1cc(C)n(-c2ccc(C(=O)Nc3cccc(S(=O)(=O)N(C)C)c3)cc2)n1	-0.289
CCCn1nc2cc(C(=O)NCCCCc3ccccc3)ccc2c1OCC	-0.11
CN(C)c1nc(C(=O)OCCO)nc(N(C)C)n1	0.0154
Cc1cc(-n2nc(C)cc2C)n2nc(C)c(-c3ccccc3)c2n1	-0.828

Structure (SMILES)	z-score
Cc1nn(-c2ccccc2)c(Cl)c1/C=N/NC(=O)c1cccc(S(=O)(=O)N2CCCC2)c1	-0.295
N/C(=N\OC(=O)c1cc(-c2ccccc2)nc2ccccc12)c1ccncc1	0.337
COc1cc(CNC2CCCCCC2)cc(OC)c1O	0.176
COc1ccc(S(=O)(=O)N(C)CC(=O)O)c2ccccc12	0.343
CCOC(=O)c1sc(NC(=O)C2CCCO2)c(C(=O)OC)c1C (centres undefined)	0.0155
Cc1cc(C)cc(Oc2ccccc2C=O)c1	-0.314
Cc1ccc(S(=O)(=O)NCc2ccc(C(=O)N3CCc4ccccc4C3)cc2)cc1	-0.264
C=C(C)CN(CC)c1nc(N)c(C#N)c(CC#N)c1C#N	0.635
Cc1ccc(-n2nnnc2SCc2nc3sc(C)c(C)c3c(=O)[nH]2)cc1	-0.532
CCCCC1(O)CC(C(F)(F)F)=NN1C(=O)COc1ccccc1 (centres undefined)	0.45
COc1ccc(N2CCN(c3oc(Cc4cccc5ccccc45)nc3C#N)CC2)cc1	0.294
Cc1ncc([N+](=O)[O-])n1CC(=O)NC1CCCCC1	-0.154
COc1ccc2c(C)cc(=O)[nH]c2c1	-0.159
COc1ccc(S(=O)(=O)NNC(=O)c2cc3cc4ccccc4nc3s2)cc1	-2.35
Cc1ccc(S(=O)(=O)Nc2cc(Cl)c(O)cc2C)cc1	0.213
COCC(=O)Nc1cccc2ccccc12	0.3
CCOc1ccc(-c2nc(-c3ccccc3)no2)cc1OCC	1.62
COC(=O)COc1ccc(S(=O)(=O)NCCC2=CCCCC2)cc1Cl	-0.401
COc1cccc(C(C)NC(=O)Nc2cccc(C(F)(F)F)c2)c1 (centres undefined)	-0.856
S=C(Nc1ccc(Cl)c(Cl)c1)N1CCOCC1	0.263
COc1cccc(CN(C)C(=O)c2ccc(S(=O)(=O)N3CCCC3)cc2)c1OC	-0.0592
